Where a chain is given by its changes, count along the chain named. In names and notes the source's numbering stands. Results are given in words; binding and its absence hold for the method and conditions named. For some of these results: In cells and extracts the contact can be indirect. Some entries that bind do so weakly or less than the wild type. For some of these results: Where a sequence is shown, tags or fusion partners need not be part of it.

Experiment [1] has as its target T1, ZapA‐T18 (Escherichia coli) (UniProt P0ADS2).
T1 sequence: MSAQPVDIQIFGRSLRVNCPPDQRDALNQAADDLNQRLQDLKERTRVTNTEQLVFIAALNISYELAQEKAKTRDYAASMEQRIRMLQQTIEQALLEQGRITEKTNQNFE
In words: two-hybrid; bacterial two-hybrid: fusions to the T18 and T25 domains of adenine cyclase in strain BTH101, spotted on LB plates with X-gal and IPTG, 30°C, 12 h; blue indicates a positive interaction.

Experiment [2] has as its target T2, ZapA^C19A,T50C–GFP (Escherichia coli) (UniProt P0ADS2).
T2 sequence: T1 sequence with C19A, T50C
In words: cross-linking; in vivo cysteine cross-linking with 400 μM BMOE, 4°C, 15 min, in PBSG with 5 mM EDTA; DMF as negative control; western blot with antiserum against FtsZ. In general terms: A western blot detects proteins with antibodies after separation by electrophoresis.

Experiment [3] addresses T3, H-SUMO-ZapA (Escherichia coli) (UniProt P0ADS2).
T3 sequence: T1 sequence
Kind of experiment: pull-down; H-SUMO-ZapA (6 μM) and FtsZ (2 μM) in Pol buffer (50 mM HEPES-NaOH pH 6.8, 50 mM KCl, 10 mM MgCl2), GTP in the buffers throughout, held on Ni-NTA agarose, washed with 500 mM NaCl and 20 mM imidazole, eluted with 250 mM imidazole; fractions on SDS-PAGE; both purified.

For experiment [4], the target named is T4, H-SUMO-ZapA (Escherichia coli), P0ADS2.
T4 chain: T1 sequence
The description is as above. The following applies: remark: other sources report otherwise.

Regarding “FtsZ^1‐316 with F2A, T25 fusion (from UniProt P0A9A6 1-316) (domain or fragment)”, the binding entry in experiment [1] is “no binding”.
On the same count and under the same terms, the result for “FtsZ^1–316 with the triple mutation (KER/NAE), T25 fusion (from UniProt P0A9A6 1-316) (domain or fragment)” reads “no binding”; that for “FtsZ^1–316, T25 fusion (from UniProt P0A9A6 1-316) (domain or fragment)”, “binds”; that for “FtsZ^316–370, two-hybrid fusion (from UniProt P0A9A6 316-370) (domain or fragment)”, “no binding”.
On the same count and under the same terms, the result for “FtsZ^370–383, two-hybrid fusion (from UniProt P0A9A6 370-383) (domain or fragment)” reads “no binding”.
Take FtsZ^N73C (from UniProt P0A9A6 1-383): the binding entry in experiment [2] is “binds”.
In the case of “T25–FtsZ^1–316 with L178E (from UniProt P0A9A6 1-316) (domain or fragment)”, the binding result in experiment [1] is on record as “no binding”.
In the case of “full length FtsZ, two-hybrid fusion (from UniProt P0A9A6 1-383)”, the binding result in experiment [1] is reported as “binds”.
Consider “wild-type FtsZ (from UniProt P0A9A6 1-383)”, for which, in experiment [3], the binding entry was “binds weakly”.

B1: FtsZ^(D212N, F2A), P0A9A6 1-383 (protein)
chain: MAEPMELTNDAVIKVIGVGGGGGNAVEHMVRERIEGVEFFAVNTDAQALRKTAVGQTIQIGSGITKGLGAGANPEVGRNAADEDRDALRAALEGADMVFIAAGMGGGTGTGAAPVVAEVAKDLGILTVAVVTKPFNFEGKKRMAFAEQGITELSKHVDSLITIPNDKLLKVLGRGISLLDAFGAANDVLKGAVQGIAELITRPGLMNVDFANVRTVMSEMGYAMMGSGVASGEDRAEEAAEMAISSPLLEDIDLSGARGVLVNITAGFDLRLDEFETVGNTIRAFASDNATVVIGTSLDPDMNDELRVTVVATGIGMDKRPEITLVTNKQVQQPVMDRYQQHGMAPLTQEQKPVAKVVNDNAPQTAKEPDYLDIPAFLRKQAD
Regarding B1, the binding entry in experiment [4] is listed as “binds”.

(Values after PMC12754632, “ZapA uses a two‐pronged mechanism to facilitate Z ring formation in Escherichia coli” (mLife, 2025).)
